# Assay results taken from paper PMC4336329 (PLoS ONE, 2015).
# The whole screen tested about 310,000 compounds, of which about 2,200 (0.71%) showed an effect of 50% or more. The effect is printed as a negative number. This is one part of the list.
# Target: human ether-à-go-go-related gene (hERG) potassium channel (human, UniProt Q12809)
# Experiment: primary screen, population patch clamp on CHO cells stably expressing hERG
# human ether-à-go-go-related gene (hERG) potassium channel, sequence (Q12809 whole entry, looked up): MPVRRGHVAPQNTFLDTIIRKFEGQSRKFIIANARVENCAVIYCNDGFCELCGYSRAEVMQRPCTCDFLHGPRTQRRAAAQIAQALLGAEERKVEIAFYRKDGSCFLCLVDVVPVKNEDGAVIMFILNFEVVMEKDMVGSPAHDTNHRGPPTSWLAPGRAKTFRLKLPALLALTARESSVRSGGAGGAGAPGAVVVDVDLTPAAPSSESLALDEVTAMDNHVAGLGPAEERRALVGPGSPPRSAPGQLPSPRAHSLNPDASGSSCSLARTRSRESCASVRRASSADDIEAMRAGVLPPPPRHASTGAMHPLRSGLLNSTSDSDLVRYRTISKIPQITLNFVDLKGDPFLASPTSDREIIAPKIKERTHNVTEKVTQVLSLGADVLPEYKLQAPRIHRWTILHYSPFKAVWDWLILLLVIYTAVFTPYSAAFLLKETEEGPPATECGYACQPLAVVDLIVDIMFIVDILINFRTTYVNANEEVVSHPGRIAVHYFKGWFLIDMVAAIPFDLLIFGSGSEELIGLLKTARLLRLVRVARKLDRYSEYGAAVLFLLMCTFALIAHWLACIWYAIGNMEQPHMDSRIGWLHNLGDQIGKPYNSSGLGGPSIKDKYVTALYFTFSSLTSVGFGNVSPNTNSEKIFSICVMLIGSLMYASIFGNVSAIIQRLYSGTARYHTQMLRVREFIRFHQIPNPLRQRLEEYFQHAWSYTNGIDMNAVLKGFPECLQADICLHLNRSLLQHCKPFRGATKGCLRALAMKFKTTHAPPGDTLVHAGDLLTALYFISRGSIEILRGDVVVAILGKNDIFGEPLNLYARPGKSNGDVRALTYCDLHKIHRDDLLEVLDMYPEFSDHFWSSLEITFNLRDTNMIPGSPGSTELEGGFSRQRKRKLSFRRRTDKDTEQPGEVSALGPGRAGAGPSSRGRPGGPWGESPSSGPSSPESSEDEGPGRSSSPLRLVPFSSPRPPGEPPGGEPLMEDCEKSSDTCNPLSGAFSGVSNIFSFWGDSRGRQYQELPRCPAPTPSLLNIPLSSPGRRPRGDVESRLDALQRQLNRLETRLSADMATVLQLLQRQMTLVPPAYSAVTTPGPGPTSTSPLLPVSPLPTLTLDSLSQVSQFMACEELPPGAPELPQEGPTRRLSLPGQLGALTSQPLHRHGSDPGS
row,SMILES,"hERG current change (%, negative = inhibition) at 1uM"
1,CCCCN(CC)S(=O)(=O)c1ccc2c(c1)CCCN2C(C)=O,-6.1%
2,COCc1cc(C)nc2sc(C(=O)Nc3ccc(C(=O)OC)cc3)c(N)c12,12.6%
3,CN(C(=O)c1ccncc1)c1nnc(-c2cnccn2)s1,13.8%
4,Cc1ccc(NC(=S)N2CC(C)OC(C)C2)cc1C (centres unmarked),9.55%
5,CC(C)c1ccc(NC(=O)CCNC(=O)N2C[C@H]3C[C@@H](C2)c2cccc(=O)n2C3)cc1,9.18%
6,O=C(NC1CCCCC1)C1CCN(S(=O)(=O)c2cccs2)CC1,9.65%
7,Cn1ccs/c1=N\C(=O)Nc1cccc(C(F)(F)F)c1,9.61%
8,O=[N+]([O-])c1ccc2nc(-c3cccnc3)[nH]c2c1,5.81%
9,CC(=O)NC(=O)Nc1sc(=S)n(C)c1C,14.4%
10,CC(=O)OCC1=C(C(=O)O)N2C(=O)C(NC(=O)c3ccc(F)cc3)C2SC1 (centres unmarked),8.38%
11,COc1ccc2cc(C(c3nnnn3C3CCCC3)N3CCc4ccccc4C3)c(=O)[nH]c2c1 (centres unmarked),-12.1%
12,O=C(Nc1cc(C(F)(F)F)ccc1-n1cnc2ccccc21)c1ccccc1,-4.23%
13,COc1ccccc1-c1nnc(NC(C)=O)s1,4.27%
14,Cc1cccc(NC(=O)C(=O)NCc2ccc3c(c2)OCO3)c1C,-2.14%
15,Cc1cc(Nc2ccc(Br)c(C)c2)n2nc(C)nc2n1,-2.83%
16,NNc1nccc(Nc2ccccc2C(=O)O)n1,6.44%
17,CCOc1nc(-c2ccccc2)ccc1-c1noc(-c2ccncc2)n1,13%
18,Cc1cc(C(=O)OCC(=O)Nc2ccccc2[N+](=O)[O-])c2ccccc2n1,10.2%
19,CC1(C)CN=C(N(C(=O)Nc2ccccc2)c2ccccc2F)S1,11.9%
20,Cc1cccc(OCC(O)Cn2ccnc2C)c1 (centres unmarked),9.45%
21,Cc1nc2ncnn2c(Nc2ccc3c(c2)OCCO3)c1C,8.63%
22,CCN(CC)c1nc(OC)nc(-n2nnc(C(C)=O)c2C)n1,4.43%
23,COC(=O)c1c(NC(=O)CN2CCN(S(=O)(=O)c3ccccc3)CC2)sc2c1CCC(C)C2 (centres unmarked),4.65%

row,SMILES,"hERG current change (%, negative = inhibition) at 1uM"
1,CCC(Sc1nncn1C)C(=O)Nc1cc(C)on1 (centres unmarked),24.4%
2,CC(C)(C)NC(=O)NC(=O)COC(=O)Cn1cnc2ccccc2c1=O,7.57%
3,COc1ccc(N2C(=O)C3CCCN3C2c2ccc(F)cc2)cc1Cl (centres unmarked),8.28%
4,O=C(CN(Cc1ccco1)C(=O)c1ccccc1F)Nc1ccccc1C(F)(F)F,-0.639%
5,COc1ccc(NS(=O)(=O)c2c(C)n(C)c(=O)n(C)c2=O)cc1OC,3%
6,O=C(c1cccc(Cl)c1)N1CCN(c2ncccn2)CC1,10.9%
7,Cn1cc([N+](=O)[O-])c(C(=O)Nc2ccc3c(c2)OCCO3)n1,12.2%
8,CC1CN(C(=O)COC(=O)COc2ccc(C#N)cc2)CC(C)O1 (centres unmarked),11.6%
9,Cn1c(C(=O)c2ccccc2[N+](=O)[O-])nc2ccccc21,-9.27%
10,CC[n+]1c(/C=C/c2ccc(N(C)C)cc2)ccc2ccccc21.[I-],-27%
11,Cc1c(NC(=O)c2cccc(-c3cc4ccccc4oc3=O)c2)cccc1-c1nc2ncccc2o1,12.7%
12,CC(NC(=O)CCc1nnc(C2(c3ccc(Cl)cc3)CCC2)o1)C1CC1 (centres unmarked),-0.143%
13,CSc1ccccc1NS(=O)(=O)c1ccccc1,4.91%
14,O=C(c1ccccc1)N1CCN(S(=O)(=O)c2ccc(Cl)c(C(F)(F)F)c2)CC1,7.68%
15,COc1ccc(NC(=O)N2CCC(O)(c3cccnc3)CC2)c(OC)c1,15.6%
16,O=C(Nc1ccncc1NC(=O)c1cccc([N+](=O)[O-])c1)c1cccc([N+](=O)[O-])c1,8.76%
17,O=C1C=CC(=O)N1c1ccc(O)cc1,7.51%
18,CCOC(=O)c1csc(N/N=C2\CCc3ccccc32)n1,12.3%
19,COc1ccc(C(=O)Cc2ccc(OC)c(OC)c2)c(OC)c1,12.8%
20,Cc1cccc(/C=C2\Sc3ccc(C(=O)N4CCOCC4)cc3N(C)C2=O)c1,7.7%
21,CC(C)NCCCCOc1ccccc1-c1ccccc1.O=C(O)C(=O)O,-4.25%
22,O=C(NCCN1CCOCC1)C1CC(=O)N(c2ccc(F)c(Cl)c2)C1 (centres unmarked),0.843%
23,Cc1ccc(-c2ccc(=O)n(CC(=O)NCCN3C(C)CCCC3C)n2)cc1 (centres unmarked),7.38%

row,SMILES,"hERG current change (%, negative = inhibition) at 1uM"
1,O=C(Nc1ccccc1SCC1CSc2nc3ccccc3c(=O)n21)c1ccccc1Cl (centres unmarked),-53.2%
2,COc1ccc(CN2C(=NC(=O)CCc3ccccc3)SC3CS(=O)(=O)CC32)cc1 (centres unmarked),14.7%
3,CCCCCC(=O)Nc1nc(C)c(-c2csc(Nc3ccc(Cl)cc3)n2)s1,13.5%
4,O=C1N(c2nncs2)CCN1[N+](=O)[O-],14.6%
5,O=C(Nc1ccc(S(=O)(=O)NCc2cccnc2)cc1)c1ccccc1Cl,8.65%
6,CCN(CC)C(=O)C(=O)c1cc(C)n(-c2ccc(F)cc2)c1C,17.5%
7,Cc1cccc(CNS(=O)(=O)c2csc(C(N)=O)c2)c1,24.9%
8,O=c1c2c(n3cnnc3n1C1CCCCC1)-c1ccccc1CC21CCCCC1,10.3%
9,C/C(=N\NC(=O)c1ccc([N+](=O)[O-])cc1)c1cccc([N+](=O)[O-])c1,7.96%
10,COc1ccc(C2C3=C(CCCC3=O)N(CC(=O)O)C3=C2C(=O)CCC3)cc1Cl,14%
11,CCCOc1cccc(C(=O)N(Cc2ccccc2)C2CCS(=O)(=O)C2)c1 (centres unmarked),7.37%
12,CC1CCN(S(=O)(=O)N2CCCC(C(=O)NCc3ccccc3Cl)C2)CC1 (centres unmarked),4.92%
13,Cc1ccc(NC(=O)Nc2nnc(-c3ccccc3)o2)cc1,5.86%
14,CC1CCCCC1NC(=O)COn1nnc2ccc(Cl)cc21 (centres unmarked),-2.69%
15,CCC1Sc2ccc(S(=O)(=O)CCC(=O)Nc3ccccc3Cl)cc2NC1=O (centres unmarked),21.3%
16,CC(NS(=O)(=O)c1ccc(Cl)cc1)C(=O)NCc1ccco1 (centres unmarked),-0.236%
17,Cc1cccc(Cc2cnc(N3C(=N)SC(C)C3=O)s2)c1 (centres unmarked),0.864%
18,CCC1CN(C(=O)N2CCC(C(=O)NCCc3ccccc3OC)CC2)c2ccccc2O1 (centres unmarked),3.23%
19,CCCn1c(SCC(=O)Nc2cccc(NC(C)=O)c2)nnc1C(C)C,9.33%
20,Cc1cc(SCC(=O)NCC2CCCO2)nc2ccccc12 (centres unmarked),3.84%
21,CC1CCN(C(=O)c2ccc([N+](=O)[O-])o2)CC1,10.4%
22,c1ccc2c(C3=NNC(=NC4CCCCC4)SC3)c[nH]c2c1,1.78%
23,O=C(NCc1ccccn1)Nc1ccc(Cl)c(Cl)c1,-2.17%

row,SMILES,"hERG current change (%, negative = inhibition) at 1uM"
1,COc1cccc(OCc2nnc(SCC(=O)N3c4ccccc4Sc4ccc(Cl)cc43)o2)c1,4.52%
2,Cc1cc(OCC(=O)N2CCC(C(=O)O)(c3ccccc3)CC2)c2c(C)c(C)c(=O)oc2c1,4.94%
3,CN(CCc1ccccn1)C1CC(=O)N(c2ccc(Cl)cc2)C1=O (centres unmarked),8.69%
4,COc1ccc(NC(=S)N2CCNC(=O)C2CC(=O)Nc2ccc(C)cc2)cc1 (centres unmarked),6.98%
5,CC(C)N=Cc1c(O)[nH]c2ccccc12,9.58%
6,CC1(C)CC(=O)/C(=C(\O)Cc2ccccc2)C(=NCCCCCC(=O)O)C1,-4.34%
7,CCc1ccc(N=C2NC(=O)/C(=C/c3ccc(OCC(=O)O)cc3)S2)cc1,9.62%
8,COCCCNC(=O)Cn1c(=O)oc2cc(S(=O)(=O)N3CC(C)CC(C)C3)ccc21 (centres unmarked),17.5%
9,O=C(c1ccco1)N1CCC(c2nc(-c3ccccc3Cl)no2)CC1,1.24%
10,CCN(CC)c1ccc(/C=N/NC(=O)c2cc3ccccc3[nH]2)cc1,10.5%
11,Cc1ccccc1N(C(=O)Cc1c[nH]c2ccccc12)C(C(=O)NC1CCCCC1)c1ccco1 (centres unmarked),3.81%
12,CC(C)CN(C(=O)COC(=O)c1ccccn1)c1c(N)n(Cc2ccccc2)c(=O)[nH]c1=O,1.21%
13,Cc1nc(NS(=O)(=O)c2ccccc2)sc1C(=O)N/N=C/c1ccccc1,-2.87%
14,Cc1ccc(N2CCN(c3ccc(NC(=O)CCC(=O)O)cc3)CC2)cc1,9.13%
15,CCOC(=O)C1(CC2CC2)CCN(S(=O)(=O)C[C@]23CC[C@H](CC2=O)C3(C)C)CC1,6.16%
16,O=[N+]([O-])c1ccccc1CSc1ccccn1,17%
17,OC(CNC1CCCCC1)CNC1CCCCC1,6.88%
18,Cc1c(CCO)c(=O)[nH]n1S(=O)(=O)c1ccc(F)cc1,5.88%
19,CCN(CC)CCN(C(=O)c1ccc2ccccc2c1)c1nc2cc3c(cc2s1)OCO3.Cl,0.509%
20,CCOc1ccc(Oc2nc(C)cc(OC)n2)nn1,-3.57%
